ChEMBL document CHEMBL5634115, “Exploring novel anticancer pyrazole benzenesulfonamides featuring tail approach strategy as carbonic anhydrase inhibitors” (Eur J Med Chem, 2023)

Molecular target: Carbonic anhydrase 12 (Homo sapiens, UniProt O43570)
Sequence (O43570 whole entry): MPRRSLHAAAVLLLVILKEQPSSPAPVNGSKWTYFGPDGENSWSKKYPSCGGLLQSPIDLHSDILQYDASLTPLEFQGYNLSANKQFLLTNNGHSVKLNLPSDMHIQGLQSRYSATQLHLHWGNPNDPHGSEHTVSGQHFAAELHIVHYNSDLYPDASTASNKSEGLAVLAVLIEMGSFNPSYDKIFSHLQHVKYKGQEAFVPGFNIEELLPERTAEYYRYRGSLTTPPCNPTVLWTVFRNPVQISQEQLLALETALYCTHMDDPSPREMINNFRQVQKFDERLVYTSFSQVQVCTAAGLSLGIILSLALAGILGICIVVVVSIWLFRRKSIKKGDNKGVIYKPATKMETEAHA

COc1ccc(-c2nn(-c3ccc(S(N)(=O)=O)cc3)cc2/C=N/Nc2ccc(C(=O)O)cc2)cc1
IC50: 207 nM

CCOC(=O)c1cn(-c2ccc(S(N)(=O)=O)cc2)nc1-c1ccc(OC)cc1
IC50: 276 nM

CS(=O)(=O)c1ccc(-c2nn(-c3ccc(S(N)(=O)=O)cc3)cc2C(=O)NNC(N)=O)cc1
IC50: 548 nM

NS(=O)(=O)c1ccc(-n2cc(/C=N/NC3=NS(=O)(=O)c4ccccc43)c(-c3ccccc3)n2)cc1
IC50: 379 nM

NS(=O)(=O)c1ccc(N/N=C/c2cn(-c3ccc(S(N)(=O)=O)cc3)nc2-c2ccccc2)cc1
IC50: 1360 nM

COc1ccc(-c2nn(-c3ccc(S(N)(=O)=O)cc3)cc2/C=N/Nc2ccc(S(N)(=O)=O)cc2)cc1
IC50: 2870 nM

COc1ccc(-c2nn(-c3ccc(S(N)(=O)=O)cc3)cc2C(=O)NNC(N)=O)cc1
IC50: 1060 nM

NS(=O)(=O)c1ccc(N/N=C/c2cn(-c3ccc(S(N)(=O)=O)cc3)nc2-c2ccc(Br)cc2)cc1
IC50: 2420 nM

NS(=O)(=O)c1ccc(-n2cc(/C=N/Nc3ccc(C(=O)O)cc3)c(-c3ccc(Br)cc3)n2)cc1
IC50: 84 nM

CS(=O)(=O)c1ccc(-c2nn(-c3ccc(S(N)(=O)=O)cc3)cc2C(=O)O)cc1
IC50: 1770 nM

CCOC(=O)c1cn(-c2ccc(S(N)(=O)=O)cc2)nc1-c1ccc(C)cc1
IC50: 38 nM

CCOC(=O)c1ccc(N/N=C/c2cn(-c3ccc(S(N)(=O)=O)cc3)nc2-c2ccc(Br)cc2)cc1
IC50: 1160 nM

CS(=O)(=O)c1ccc(-c2nn(-c3ccc(S(N)(=O)=O)cc3)cc2/C=N/Nc2ccc(S(N)(=O)=O)cc2)cc1
IC50: 575 nM

COc1ccc(-c2nn(-c3ccc(S(N)(=O)=O)cc3)cc2C(=O)NO)cc1
IC50: 367 nM

NC(=O)NNC(=O)c1cn(-c2ccc(S(N)(=O)=O)cc2)nc1-c1ccccc1
IC50: 2030 nM

NS(=O)(=O)c1ccc(-n2cc(C(=O)NO)c(-c3ccccc3)n2)cc1
IC50: 722 nM

CCOC(=O)c1cn(-c2ccc(S(N)(=O)=O)cc2)nc1-c1ccccc1
IC50: 545 nM

CCOC(=O)c1cn(-c2ccc(S(N)(=O)=O)cc2)nc1-c1ccc(S(C)(=O)=O)cc1
IC50: 91 nM

CS(=O)(=O)c1ccc(-c2nn(-c3ccc(S(N)(=O)=O)cc3)cc2/C=N/Nc2ccc(C(=O)O)cc2)cc1
IC50: 177 nM

CCOC(=O)c1ccc(N/N=C/c2cn(-c3ccc(S(N)(=O)=O)cc3)nc2-c2ccc(S(C)(=O)=O)cc2)cc1
IC50: 101 nM

CS(=O)(=O)c1ccc(-c2nn(-c3ccc(S(N)(=O)=O)cc3)cc2C(=O)NN)cc1
IC50: 538 nM

CS(=O)(=O)c1ccc(-c2nn(-c3ccc(S(N)(=O)=O)cc3)cc2C(=O)NO)cc1
IC50: 74 nM

Cc1ccc(-c2nn(-c3ccc(S(N)(=O)=O)cc3)cc2/C=N/Nc2ccc(C(=O)O)cc2)cc1
IC50: 102 nM

CCOC(=O)c1cn(-c2ccc(S(N)(=O)=O)cc2)nc1-c1ccc(Br)cc1
IC50: 165 nM

Cc1ccc(-c2nn(-c3ccc(S(N)(=O)=O)cc3)cc2C(=O)NO)cc1
IC50: 69 nM

Cc1ccc(-c2nn(-c3ccc(S(N)(=O)=O)cc3)cc2C(=O)NNC(N)=O)cc1
IC50: 385 nM

NS(=O)(=O)c1ccc(-n2cc(C(=O)NO)c(-c3ccc(Br)cc3)n2)cc1
IC50: 79 nM
